The campaign covered roughly 310,000 compounds. About 14,000 (4.5%) showed an effect of 50% or more. The effect is printed as a negative number. This is one part of the list.
target: human ether-à-go-go-related gene (hERG) potassium channel (human, UniProt Q12809); test: primary screen, population patch clamp on CHO cells stably expressing hERG
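Also: peak tail current of the secondary pulse compared with the same well before compound.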

Sequence of human ether-à-go-go-related gene (hERG) potassium channel (Q12809 whole entry, looked up): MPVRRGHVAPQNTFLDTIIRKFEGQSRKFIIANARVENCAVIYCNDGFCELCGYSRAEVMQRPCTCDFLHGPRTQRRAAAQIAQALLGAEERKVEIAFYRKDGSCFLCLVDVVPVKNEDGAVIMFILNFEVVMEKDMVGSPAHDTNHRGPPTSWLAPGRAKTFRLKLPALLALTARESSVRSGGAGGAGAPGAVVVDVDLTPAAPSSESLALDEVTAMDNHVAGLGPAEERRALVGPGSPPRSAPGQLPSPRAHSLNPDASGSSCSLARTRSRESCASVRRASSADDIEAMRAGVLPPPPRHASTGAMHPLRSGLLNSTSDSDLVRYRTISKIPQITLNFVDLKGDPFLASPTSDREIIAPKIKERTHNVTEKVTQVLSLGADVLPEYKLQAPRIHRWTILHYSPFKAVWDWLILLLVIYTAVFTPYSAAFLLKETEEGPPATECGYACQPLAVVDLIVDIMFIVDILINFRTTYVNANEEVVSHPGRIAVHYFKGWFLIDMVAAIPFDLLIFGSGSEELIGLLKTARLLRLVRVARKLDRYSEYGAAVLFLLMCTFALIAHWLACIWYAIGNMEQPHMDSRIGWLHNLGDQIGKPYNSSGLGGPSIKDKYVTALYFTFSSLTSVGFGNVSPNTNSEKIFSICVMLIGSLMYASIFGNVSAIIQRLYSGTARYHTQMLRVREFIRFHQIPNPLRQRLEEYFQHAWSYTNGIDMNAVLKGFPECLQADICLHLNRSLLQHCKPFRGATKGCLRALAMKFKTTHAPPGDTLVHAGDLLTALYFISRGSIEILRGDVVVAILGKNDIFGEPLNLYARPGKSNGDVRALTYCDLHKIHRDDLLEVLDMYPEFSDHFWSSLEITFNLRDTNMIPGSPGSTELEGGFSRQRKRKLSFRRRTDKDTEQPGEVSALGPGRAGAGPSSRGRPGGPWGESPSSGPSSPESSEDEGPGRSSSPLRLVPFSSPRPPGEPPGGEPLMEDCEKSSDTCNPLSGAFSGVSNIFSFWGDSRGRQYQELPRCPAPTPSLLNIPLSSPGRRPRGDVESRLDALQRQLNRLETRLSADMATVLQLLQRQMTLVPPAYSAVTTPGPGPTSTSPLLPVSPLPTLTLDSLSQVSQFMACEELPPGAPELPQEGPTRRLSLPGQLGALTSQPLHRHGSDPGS

In order of rising “hERG current change (%, negative = inhibition) at 10uM” value:
1. COCCn1c(SCC(=O)N2CCCc3ccccc32)nc2ccccc2c1=O  -72.6%
2. CCN(CC)S(=O)(=O)c1cc(C(=O)Nc2cc(Cl)ccc2N2CCN(C)CC2)ccc1Cl  -53.5%
3. CC(=O)c1ccc(OCC(O)CN2CCN(Cc3ccc4c(c3)OCO4)CC2)cc1.Cl (centres unmarked)  -49.8%
4. CN1CCN(c2oc(-c3ccccc3Cl)nc2S(=O)(=O)c2ccccc2)CC1  -47.9%
5. COc1ccc(S(=O)(=O)Cc2ccc(C(=O)NCCc3cc(OC)ccc3OC)o2)cc1  -39.6%
6. CCCCCCCC(=O)N/N=C/c1ccc([N+](=O)[O-])o1  -38.5%
7. COc1cc(S(=O)(=O)N(Cc2cccs2)CC2CCCO2)ccc1-n1cnnn1 (centres unmarked)  -29%
8. Nc1ccc(C(=O)NC2CCSc3ccccc32)cc1[N+](=O)[O-] (centres unmarked)  -27.5%
9. O=C(NCCOc1ccccc1)c1cncc(Br)c1  -26.8%
10. CCOc1ccccc1NC(=O)CSc1nncc2ccccc12  -24.3%
11. CCOc1ccc(NC(=O)CN(C)C(=O)C2CC(=O)N(c3ccc4c(c3)OCCO4)C2)cc1OCC (centres unmarked)  -22.3%
12. CS(=O)(=O)Cc1ccc(C(=O)N(CCc2ccccc2)Cc2ccccc2)cc1  -16.2%
13. CCOC(=O)c1ccccc1Nc1cc(C)nc2nc(C)nn12  -15.9%
14. CN(C)c1nc(N(C)C)nc(N(C#N)CN2C(=O)c3ccccc3S2(=O)=O)n1  -15.8%
15. O=[N+]([O-])c1cc2c(c(CSc3nnnn3-c3ccc(O)cc3)c1)OCOC2  -15.8%
16. C=CCNc1oc(-c2ccc(OCC)cc2)nc1C#N  -15.3%
17. COC(=O)/N=C/c1c(NCc2ccccc2)nc2c(C)cccn2c1=O  -13.2%
18. CCOc1ccc2[nH]c(=O)c(CN(Cc3ccco3)C(CC)c3nnnn3Cc3ccccc3)cc2c1 (centres unmarked)  -12.5%
19. Cc1ccccc1Sc1ncccc1[N+](=O)[O-]  -12%
20. O=C1C2Sc3[nH]c(=O)sc3C(c3ccccc3)C2C(=O)N1c1ccc(Cl)cc1 (centres unmarked)  -11.1%
21. O=C(NCN1CCc2ccccc2C1)c1ccccc1  -10.7%
22. COc1ccc(CNC(=O)C2CC(c3ccccc3C(F)(F)F)=NO2)cc1 (centres unmarked)  -10%
23. COC(=O)c1ccc(Sc2ccccc2NS(=O)(=O)c2ccc(NC(C)=O)cc2)nc1  -9.89%
24. Cc1ccc(SCC(=O)NC(=O)Nc2ccc3c(c2)OCCO3)cc1C  -9.53%
25. CCCCNC(=O)c1cc(-c2ccc(OC)c(OC)c2)on1  -9.1%
26. COc1ccc(OC)c2c(C)cc(N3CCN(C(=O)c4ccc(C)cc4)CC3)nc12  -8.22%
27. Cc1ccc(S(=O)(=O)CC(=O)NC2CC2)cc1  -7.35%
28. COc1ccccc1OCC(=O)Nc1ccc(S(=O)(=O)N2CCCCCC2)cc1  -6.81%
29. O=C(c1ccc(NS(=O)(=O)c2ccc(F)cc2)cc1)N1CCCCC1  -6.5%
30. CC(C)[C@@H](C(=O)N1CCCC1)N1C(=O)N2CCc3c([nH]c4ccccc34)[C@@]2(C)C1=O  -6.38%
31. COc1ccc(C(=O)OC(C)C(=O)NC(C)CCc2ccccc2)c(OC)c1 (centres unmarked)  -6.18%
32. CCOC(=O)c1c(NC(=O)COC(=O)c2ncc(Cl)c(Cl)c2Cl)sc(C(=O)N(C)C)c1C  -5.82%
33. Cc1ccc(C(=O)O/N=C(\N)c2cccnc2)cc1[N+](=O)[O-]  -5.2%
34. O=C1OC(/C(=C\NCc2ccccc2)[N+](=O)[O-])c2ccccc21 (centres unmarked)  -5.17%
35. CCn1cc(C2=NOC(C(=O)Nc3ccccc3C(=O)OC)C2)c(C)n1 (centres unmarked)  -3.86%
36. CC(NC(=O)C1CCCCC1)C(c1cccs1)N1CCN(C)CC1 (centres unmarked)  -3.65%
37. COCCNc1c(-c2ccc(O)cc2)nc2ccc(Cl)cn12  -3.37%
38. N#Cc1ccc(NCC(=O)Nc2ccc(S(=O)(=O)N3CCCCC3)cc2)cc1  -2.03%
39. CCOC(=O)N1CCN(C(=O)C2c3cc(OC)c(OC)cc3C(=O)N3CCc4ccccc4C23)CC1 (centres unmarked)  -1.86%
40. CCOC(=O)CC(NC(C)=O)c1ccc([N+](=O)[O-])cc1 (centres unmarked)  -1.79%
41. COc1cccc(N2CC(C(=O)Nc3nnc(SCC(=O)c4ccccc4)s3)CC2=O)c1 (centres unmarked)  -1.18%
42. Cc1cc(OC(C)C(=O)N2C[C@H]3C[C@@H](C2)c2cccc(=O)n2C3)c2c(C)c(C)c(=O)oc2c1 (some centres unmarked)  -0.917%
43. CCN(CC)c1nc(C(N)=O)cc(-c2ccccc2)n1  -0.608%
44. Cc1cccc(C)c1NC(=O)CN1CCNCC1  -0.377%
45. CCC(C)NC(=O)C1CCN(S(=O)(=O)c2cc([N+](=O)[O-])ccc2Cl)CC1 (centres unmarked)  -0.184%
46. Nn1c(SCC(=O)Nc2ccc(S(N)(=O)=O)cc2)nnc1C(F)(F)F  0.037%
47. CC(=O)Nc1ccc(NC(=O)C(C)OC(=O)c2cc(S(=O)(=O)N(C)C)ccc2N2CCCC2)cc1 (centres unmarked)  0.785%
48. COc1ccc(Oc2ncnc3sccc23)cc1  1.8%
49. Cc1ccc2nc(SCC(=O)NCc3ccccc3)nc(=O)n2c1  2.24%
50. CN(C)C(=O)N1CCN(C(=O)c2ccco2)CC1  2.88%
51. O=C(COC(=O)/C=C/c1cccs1)Nc1cccc(S(=O)(=O)N2CCCC2)c1  2.94%
52. N#CCCn1cc(C(CC(=O)c2ccc(Br)cc2)C(=O)O)c2ccccc21 (centres unmarked)  3.11%
53. c1ccc(Oc2cc(-c3ccccc3)nc(-c3ccccc3)n2)cc1  3.68%
54. O=C(O)CN1C(=O)/C(=C/c2ccccc2Br)Oc2ccccc21  4.16%
55. O=[N+]([O-])c1ccc(/C=N/Nc2nc(N3CCCCCC3)nc(N3CCCCCC3)n2)o1  4.65%
56. COc1ccc(C)cc1NC(=O)CSc1nc(SC)ns1  4.92%
57. CN(CC(=O)NCc1ccc(F)cc1)Cc1cccc(Cl)c1  4.92%
58. CC(C#N)(NC(=O)CN1CCN(S(=O)(=O)c2ccccc2Cl)CC1)C1CC1 (centres unmarked)  5.18%
59. CCc1noc(C)c1C(=O)NC1CC(C)(C)Cc2c1cnn2-c1ccccc1 (centres unmarked)  5.9%
60. Cc1cc(C)nc(Sc2ccc(C=O)cc2[N+](=O)[O-])n1  6.95%
61. Cn1nnnc1SCC(=O)Nc1ccc(Oc2ccc(Cl)cc2)cc1  6.99%
62. O=C(CSc1nnc(-c2ccc(Cl)cc2)o1)N1CCOCC1  7.01%
63. Cc1noc(C)c1COc1ccc(C(=O)OCC(=O)Nc2ccc3c(c2)OCO3)cc1  7.08%
64. Cl.O=C(NCCCn1ccnc1)c1ccc(S(=O)(=O)N2CCOCC2)cc1  8.09%
65. CCOc1ccc(OCC)c(NC(=O)C2CCCN(S(=O)(=O)c3c(C)n[nH]c3C)C2)c1 (centres unmarked)  8.8%
66. COC(=O)c1ccc(C(=O)OC)c(NC(=S)N2CCC(C(N)=O)CC2)c1  8.81%
67. CN(C)c1ccc(NC(=O)c2cccc(N3C(=O)C4C5C=CC(C5)C4C3=O)c2)cc1 (centres unmarked)  10.3%
68. O=C(Cn1c(-c2cncs2)nc2ccccc21)NCc1ccccc1  10.8%
69. COc1ccc(OC)c(NC(=O)C2CCCN(S(=O)(=O)c3c(C)nn(C)c3C)C2)c1 (centres unmarked)  10.8%
70. COc1ccc(NC(=O)c2ccccc2-c2ccccc2C(=O)O)cc1  11.1%
71. COc1cc(/C=C/c2onc(C)c2[N+](=O)[O-])cc(OC)c1OC  11.2%
72. COc1ccc(C(=O)Nc2ccc(C(=O)N3CCOCC3)cc2)cc1OC  11.6%
73. CCOC(=O)C1CCN(C(=O)COC(=O)COc2ccccc2OC)CC1  11.9%
74. Cc1nc2ccccc2c(=O)n1/N=C/c1ccccc1Cl  12.8%
75. CCCCC/C=C\C/C=C\C/C=C\C/C=C\CCCC(=O)O  14.4%
76. CCCCC(CC)C(=O)Oc1ccc(O)c(C(C)(C)C)c1 (centres unmarked)  14.9%
77. Cc1ccc(S(=O)(=O)NCC2(c3ccccc3)CCOCC2)cc1  16.1%
78. COC(=O)CSC1=C(C#N)C(=O)NC2(CCCCC2)S1  16.3%
79. CSc1nc2sc3c(c2c(=O)n1CC(C)C)CC(C)(C)OC3  17.2%
80. Cc1c(O)ccc(NC(=O)/C=C/c2ccccc2)c1C  17.6%
81. O=C1C=CC(=O)N1  20.1%
82. COc1ccc(N(C(=O)c2snc(C(N)=O)c2N)C(C(=O)NC2CCCC2)c2ccc(F)cc2)c(OC)c1 (centres unmarked)  22.9%
83. CCc1cccc(NS(=O)(=O)c2ccc3c(c2)n(C)c(=O)n3C)c1  24.5%
84. COc1ccc(NS(=O)(=O)c2ccc(NC(=O)c3ccccc3Br)cc2)nn1  25.8%
85. CCNC(=O)C12CCC(C)(c3nc4cc(C)c(C)cc4nc31)C2(C)C (centres unmarked)  33.5%
86. CC1=NN(c2ccc(S(=O)(=O)O)cc2C)C(=O)C1  35%
